From PubChem BioAssay AID1346428 (National Center for Advancing Translational Sciences (NCATS), 2018) come the findings set out here.

Structures are written as SMILES. Where “and” joins values, the source holds several entries; their conditions need not be identical. Equal entries are not always repeated. Among all 48,000 compounds or so, about 1,200 (2.5%) were called active. Not shown: some 2% with an inconclusive outcome.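 Rule for the calls: active = activation of at least 60% and not above a set upper limit (about 1 call in 100 departs from these limits); inconclusive = activation of 40% to 60%, or above that upper limit; inactive = activation under 40%.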 Some of the results follow.

Sequence of UniProt O75388 (O75388 whole entry, looked up): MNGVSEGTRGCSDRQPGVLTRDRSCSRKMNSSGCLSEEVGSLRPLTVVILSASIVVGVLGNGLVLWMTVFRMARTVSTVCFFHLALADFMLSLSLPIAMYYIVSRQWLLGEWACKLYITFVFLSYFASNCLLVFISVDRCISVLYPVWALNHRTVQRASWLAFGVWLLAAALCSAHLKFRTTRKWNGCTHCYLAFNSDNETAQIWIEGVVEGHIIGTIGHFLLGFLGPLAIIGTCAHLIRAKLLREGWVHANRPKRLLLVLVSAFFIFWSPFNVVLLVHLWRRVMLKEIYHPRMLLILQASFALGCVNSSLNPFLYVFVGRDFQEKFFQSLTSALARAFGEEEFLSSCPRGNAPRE

This assay addresses Probable G-protein coupled receptor 32 (Homo sapiens) (UniProt O75388). As to the kind of experiment: qHTS for Agonists of Human Resolvin D1 Receptor DRV1. Note: 0% is about no effect. The settings on record: CHO-K1 GPR32 beta-arrestin PathHunter luminescence, 90 min; at 76.9 µM; stronger effect = higher value; zero percent set by DMSO-only wells. In a few lines:
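CHO-K1 cells stably expressing ProLink-tagged GPR32 and Enzyme Activator-tagged beta-arrestin were seeded at 2,500 cells/well overnight, exposed to compounds for 90 min at 37 °C, then read by beta-Gal complementation chemiluminescence after 1 h detection reagent.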
Regarding `Cc1ccc2nc(CSc3nnc(NC(=O)COc4ccccc4F)s3)cc(=O)n2c1`, the activation was inactive: 12.8%.

As for `Cn1c(=O)c2c(-c3ccccc3Br)n(C(C)(C)C)cc2n(C)c1=O`, the activation is inactive: 26.7%.

In the case of `O=C(CCCn1c(=O)c2sccc2n(Cc2c(F)cccc2Cl)c1=O)NCc1ccccc1`, the activation was inactive: -0.0539%.

`Cc1cnc2c(c1SCC(=O)N(C)c1ccccc1)c(=O)n(C)c(=O)n2C`: the activation is inactive: -7.42%.

Regarding `CCCC(=O)Nc1ccc2nn(-c3ccc(CC)cc3)nc2c1`, the activation was inactive: 7.04%.

As to `CCOC(=O)CSc1nc2sc3c(c2c(=O)n1CC)CCCC3`, the activation is inactive: 18.2%.

With `COc1ccc(C2CC(=O)c3cc(-c4nc(-c5cccc([N+](=O)[O-])c5)cs4)c(=O)n(-c4cc(C)cc(C)c4)c3C2)cc1` (stereo not given), the activation is inactive: -3.01%.

Take `CCOc1cc2sc(N3CCC(C(=O)Nc4ccccc4Cl)CC3)nc2cc1Br`: the activation is inactive: 5.16%.

On to `Cc1ccc(CN2CCC(CNC(=O)c3cc4ccc5cccnc5c4[nH]3)CC2)cc1`, for which the activation was inactive: 1.03%.

For the compound `Cc1cc(S(=O)(=O)C(CNC(=O)COc2ccccc2)c2cccs2)ccc1F` (stereo not given), the activation is inactive: -10.8%.

`Cc1ccc(-c2nn(CC(=O)NC3CCCC3)c3c2cnc2ccc(F)cc23)cc1C`: the activation is inactive: -19%.

In the case of `O=C(Nc1ccc2nc(SCc3ccccc3)sc2c1)c1cccc(F)c1`, the activation is inactive: 6.03%.

On to `COc1ccc(NC(=O)CCN2CCN(CCO)CC2)c(OC)c1`, for which the activation is inactive: 7.89%.

Regarding `COc1ccc(Oc2nc3c(c(=O)n(C)c(=O)n3C)n2Cc2ccccc2Cl)cc1`, the activation was inactive: 14.7%.

For the compound `COc1ccccc1Cn1cc(C(=O)c2ccc(Cl)cc2)c(=O)c2cc3c(cc21)OCCO3`, the activation was inactive: 16.8%.

For the compound `COc1ccc(OCCSc2nc(C)c(Cc3ccccc3)c(=O)[nH]2)cc1`, the activation is inactive: -17.7%.

For the compound `CCSc1oc(-c2ccc(F)cc2)nc1S(=O)(=O)c1ccc(C)cc1`, the activation is inactive: -22.4%.

For `Cc1cc(OCC(=O)Nc2cc(-c3nc4ccccc4[nH]3)ccc2C)ccc1Cl`, the activation is inactive: 18.3%.

Regarding `CC(C(=O)Nc1ccc(F)c(Cl)c1)N1Cc2ccccc2C1=O` (stereo not given), the activation is inactive: -4.12%.

Turning to `COc1ccc(-c2noc(N3CCN(c4cccc(Cl)c4)CC3)n2)cc1OC`, the activation was inactive: 1.18%.

As to `CCc1sc(Nc2ccc(Cl)cc2)nc1-c1cc2cccc(OC)c2oc1=O`, the activation is inactive: -32.9%.

In the case of `CN1CCN(C(=O)c2ccc3c(c2)N(Cc2c(F)cccc2Cl)C(=O)c2ccccc2S3)CC1`, the activation is inactive: 20.9%.

With `COc1ccccc1CNC(=O)COc1cc(=O)n(C)c2ccccc12`, the activation was inactive: 4.69%.

As to `CCOc1cc(C(=O)Nc2nnc3n2CCS3)cc(OCC)c1OCC`, the activation is inactive: 3.54%.

For `CCOc1ccc(C(=O)CSc2nnc3cc(C)c4ccccc4n23)cc1`, the activation was inactive: -6.63%.

With `Cc1ccccc1C(=O)Nc1nnc(SCc2cc(=O)n3ccccc3n2)s1`, the activation was inactive: 2.14%.

For the compound `CC(=O)c1cccc(S(=O)(=O)N2CCN(c3ccccc3F)CC2)c1`, the activation was inactive: -17.7%.

As to `CC(C)(C)c1ccc(C(=O)NCC(c2cccs2)S(=O)(=O)c2ccc(F)cc2)cc1` (stereo not given), the activation is inactive: -5.12%.

For `Cc1ccc(N(CC(=O)NCC(C)c2ccccc2)S(=O)(=O)N(C)C)cc1` (stereo not given), the activation is inactive: -8.27%.

With `CCCCC(CC)CNC(=O)c1ccc2c(=O)n(CCOC)c(=O)[nH]c2c1` (stereo not given), the activation was inactive: 6.66%.

On to `Cc1ccccc1-c1nnc(CN2CCN(c3cccc(C)c3C)CC2)o1`, for which the activation is inactive: -20.1%.

As for `Brc1ccc(-c2nnc3sc(CN4CCCCC4)cn23)cc1`, the activation was inactive: 1.37%.

Turning to `Cc1ccc(NC(=O)CSc2nnc(C)n3c2cc2sccc23)c(C)c1`, the activation is inactive: -8.53%.

`CCOc1ccccc1NC(=O)CSc1nnc(N)s1`: the activation was inactive: -1.38%.

For `CCCN1C(=O)c2[nH]nc(-c3ccccc3O)c2C1c1cccc(OCc2ccccc2)c1` (stereo not given), the activation was inactive: 26.6%.

Regarding `COc1cccc(NC(=O)CSc2nc3c([nH]c4ccccc43)c(=O)n2-c2ccccc2)c1`, the activation is inactive: -41.2%.

On to `Cc1ccc(CSc2ccc(-c3cccs3)nn2)cc1`, for which the activation was inactive: -17.3%.

For the compound `O=C(Cn1ncc2c3ccccc3n(Cc3ccccc3F)c2c1=O)NC1CCCCCC1`, the activation was inactive: -3.59%.

As for `O=C(NCc1ccccc1Cl)c1cc2c(s1)-c1ccccc1SC2`, the activation was inactive: -20.8%.

As to `CC(C)(C)NC(=O)c1cnn(-c2ccccc2)c1C1CCN(C(=O)OC(C)(C)C)CC1`, the activation is inactive: 0.329%.

As to `COCCNC(=O)C(=O)NCC(c1cccnc1)N1CCN(c2ccccc2OC)CC1` (stereo not given), the activation is inactive: -8.85%.

Regarding `CCC(=O)Nc1ccccc1-c1nc2ccccc2n(CC(=O)c2ccc(C)c(C)c2)c1=O`, the activation was inactive: -12.2%.

On to `COc1cc(C(=O)NCC(c2cccnc2)N2CCc3ccccc3C2)cc(OC)c1OC` (stereo not given), for which the activation is inactive: -4.77%.

With `O=S(=O)(Nc1cccc(-c2ccc(N3CCCCCC3)nn2)c1)c1ccccc1F`, the activation was inactive: -6.64%.

Consider `Cc1oc2ncn(C)c(=O)c2c1C(=O)Nc1ccccn1`, for which the activation is inactive: -21.5%.

Turning to `O=C(CN1C(=O)COc2ccc(S(=O)(=O)N3CCOCC3)cc21)N1CCN(c2cccc(C(F)(F)F)c2)CC1`, the activation is inactive: 2.02%.

As to `C[C@]12CCC(=O)C=C1C=C[C@@H]1[C@@H]2CC[C@@]2(C)[C@H]1CC[C@@]21CCC(=O)O1`, the activation is inactive: -7.38%.

Consider `CCc1nc2sc3c(N4CCC(C)CC4)ncnc3c2c2c1CCCC2`, for which the activation was inactive: 0.176%.

Turning to `Cc1nc2nc(SCc3c(F)cccc3Cl)nn2c(C)c1Cc1ccccc1`, the activation was inactive: -19.9%.

On to `CN(C)S(=O)(=O)c1ccc(C(=O)NCCS(=O)(=O)N2CCN(c3ccccc3)CC2)cc1`, for which the activation was inactive: -4.93%.

`Cc1ccc(-c2cc(-c3ccc4c(c3)NC(=O)CO4)nc3c2COc2ccc(C)cc2-3)cc1`: the activation is inactive: -10.9%.

Regarding `COc1ccc2c(c1)c(CC(=O)O)c(C)n2Cc1ccc(Cl)cc1`, the activation is inactive: -1.58%.

With `COC(=O)[C@@H](N)Cc1ccc(O)c(O)c1`, the activation is inactive: -2.87% and inactive: -7.9%.

In the case of `Cc1cc(NC(=O)c2ccccc2Cl)ccc1NC(=O)c1ccccc1`, the activation is inactive: 48.2%.

On to `COc1ccc(-c2noc(COc3cc(C)c(Br)c(C)c3)n2)cc1OC`, for which the activation is inactive: -6.26%.
